Assay results published in PubChem BioAssay AID624418 (National Center for Advancing Translational Sciences (NCATS), 2012).
Values joined by “and” are separate entries in the source; they are usually repeats but may differ in a detail not shown here. Equal entries are not always repeated. The campaign covered roughly 410,000 compounds. About 530 (0.13%) were called active. The shares of active, inactive and inconclusive entries below differ from those in the screen. Calls follow the shape of the dose curve; as a rule, active = well fitted inhibition curve with a large enough effect; inconclusive = small, poorly fitted or top-dose-only effect, or another doubt; inactive = no such curve, though single readings can be large or run the other way. Potencies beside an inconclusive call are fits to weak or partial responses and may not hold up.

Assay: qHTS of GLP-1 Receptor Inverse Agonists: Cytotox Screen
Conditions: HEK293 cAMP-luciferase reporter cells, luminescence, 24 h; activity change, negative = inhibition: at 38.3 µM (top of the series) unless noted
In short: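 Cells in DMEM/10% Nu serum/1% pen-strep, 1536-well format. Pre-incubated 12 h, dosed with 23 nL compound, incubated a further 24 h. Luciferase detection, 12 min at room temp, luminescence.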
% is scaled to controls: 0 for no effect and ±100 for the full control effect; potency is read from the fitted curve at half-maximal effect.

| SMILES | Potency | activity change, negative = inhibition |
| --- | --- | --- |
| CCOc1cc([C@@H]2C[C@H]3CN(c4ccccc4)C(=O)[C@]34CCCN24)ccc1OC | inconclusive: 5.01 µM [inhibitor, partial curve] | – |
| Cc1ccc(Cl)cc1NC(=S)N(CCCN1CCN(C)CC1)Cc1cccs1 | inconclusive: 28.2 µM [inhibitor, single point] | – |
| O=c1c2ccccc2c(C=Nc2ccc(O)cc2)c(O)n1-c1nccs1 | inconclusive: 12.6 µM [inhibitor, single point] | – |
| COC(=O)C1=C(C)N(Cc2ccccc2)C(=NCCc2ccccn2)N[C@H]1c1cccc(F)c1 | inconclusive: 28.2 µM [inhibitor, partial curve, poor fit] | – |
| CCc1ccc(/C=N/NC(=O)c2cc(C3CC3)nc3ccc(Br)cc23)s1 | inconclusive: 10 µM [inhibitor, single point] | – |
| CCOc1cc(/C=C/c2ccc3cccc([N+](=O)[O-])c3n2)ccc1O | – | inactive: 1.01% |
| COc1cc(NC(=O)Nc2cccc(Cl)c2)c(OC)cc1NC(=O)CN1CCCCC1 | inconclusive: 14.1 µM [inhibitor, single point] | – |
| Cc1nnc2ccc(-c3cccc(NS(=O)(=O)c4ccccc4[N+](=O)[O-])c3)nn12 | – | inactive: -3.54% |
| COc1ccc(CCN2CN(S(=O)(=O)c3ccc(OC)cc3)c3nc4ccccc4nc32)cc1 | inconclusive: 17.8 µM [inhibitor, partial curve, poor fit] | – |
| COc1cc(/C=N/NC(=O)NC23CC4CC(CC(C4)C2)C3)ccc1O | – | inactive: -11.3% |
| CCOC(=O)c1oc2ccccc2c1CSc1nnc(-c2ccco2)o1 | inconclusive: 8.91 µM [inhibitor, partial curve, poor fit] | – |
| c1ccc(CN2CCN(c3nc(-c4ccccc4)nc4ccccc34)CC2)cc1 | – | inactive: 4.96% |
| CC(=O)Nc1ccc(C(=O)N/C(=C/c2ccccc2)C(=O)N2CCCCC2)cc1 | inconclusive: 31.6 µM [inhibitor, single point] | – |
| CCN1C/C(=C/c2ccc(OC)c(O)c2)C(=O)/C(=C/c2ccc(OC)c(O)c2)C1 | inconclusive: 12.6 µM [inhibitor, single point] | – |
| CCN1CCN(Cc2ccc(NC(=O)c3ccc(C)c(NC(=O)C(=O)c4c[nH]c5ccccc45)c3)cc2C(F)(F)F)CC1 | inconclusive: 28.2 µM [inhibitor, single point] and inconclusive: 11.2 µM [inhibitor, single point] | – |
| Cc1ccc(C(=O)CSc2nnc(-c3cccs3)n2C)o1 | inconclusive: 15.8 µM [inhibitor, partial curve, poor fit] | – |
| Cc1ccc2c(CC(=O)Nc3cccc(C(F)(F)F)c3)coc2c1 | inconclusive: 11.2 µM [inhibitor, single point] | – |
| Cc1ccccc1Cn1c(=N)n(CC(=O)c2ccco2)c2ccccc21 | inconclusive: 12.6 µM [inhibitor, partial curve, poor fit] | – |
| O=C(NC(NC(=S)Nc1cc(Cl)ccc1Cl)C(Cl)(Cl)Cl)c1ccco1 (stereo not given) | inconclusive: 28.2 µM [inhibitor, single point] | – |
| COc1ccc(CCNC(=O)CCC(=O)N2CC(C)Oc3ccc(Cl)cc32)cc1OC (stereo not given) | inconclusive: 10 µM [inhibitor, partial curve] | – |

| SMILES | Potency | activity change, negative = inhibition |
| --- | --- | --- |
| O=C(NC(=S)Nc1ccc(Br)cn1)c1cccs1 | inconclusive: 1 µM [inhibitor, full curve, poor fit] | – |
| COc1ccccc1N(C)S(=O)(=O)c1ccc(C(=O)NNC(=O)c2ccccc2O)cc1 | – | inactive: -4.69% |
| Cc1cc(-c2ccc(C(C)C)c(S(=O)(=O)N3CCOc4ccccc43)c2)on1 | – | inactive: 2.53% |
| Cc1ccc(C)c(NC(=O)Cn2ncc3c([nH]c4ccccc43)c2=O)c1 | – | inactive: 4.11% |
| COc1cc(C2c3c(-c4ccccc4O)n[nH]c3C(=O)N2Cc2ccco2)cc(OC)c1OC (stereo not given) | inconclusive: 15.8 µM [inhibitor, single point] | – |
| COc1cccc(CNC(=O)[C@H](C)NC(=O)N2CC(=O)Nc3ccccc32)c1 | inconclusive: 10 µM [inhibitor, single point] | – |
| CC1=NN(c2ccc(C)c(C)c2)C(=O)/C1=C\C=C\c1ccc([N+](=O)[O-])o1 | inconclusive: 8.91 µM [inhibitor, partial curve, poor fit] | – |
| CC(=O)c1ccc(NC(=O)Nc2cccnc2)cc1 | inconclusive: 20 µM [inhibitor, single point] | – |
| COc1ccc(NS(=O)(=O)c2cc(N/C(=N\S(=O)(=O)c3ccccc3)c3ccc(F)cc3)ccc2Cl)cc1 | inconclusive: 11.2 µM [inhibitor, partial curve, poor fit] | – |
| O=C(CCS(=O)(=O)c1nc(-c2cccs2)cc(C(F)(F)F)n1)Nc1ccc(Br)cc1 | inconclusive: 28.2 µM [inhibitor, single point] | – |
| CSc1ccc(/C=N\Nc2nncn2N)cc1 | inconclusive: 28.2 µM [inhibitor, single point] | – |
| O=S(=O)(c1cc(Br)c(Br)s1)N1CCN(c2ccccc2)CC1 | – | inactive: -2.65% |
| CCCCN(CC)C(=S)Nc1ccc2nc(N3CCN(C)CC3)cc(C)c2c1 | inconclusive: 10 µM [inhibitor, single point] | – |
| CC(=O)NC1C(=O)N(Cc2ccccc2)c2ccc(Br)cc21 (stereo not given) | inconclusive: 3.16 µM [inhibitor, partial curve, poor fit] | – |
| CC(C)c1ccc(NC(=O)C2CCN(S(=O)(=O)c3ccc(Br)s3)CC2)cc1 | – | inactive: -6.48% |
| CN1CCN(C(=O)C[C@@H]2CC[C@@H]3[C@H](COC[C@@H](O)CN3Cc3cccc(Cl)c3)O2)CC1 | – | inactive: 0.487% |
| CCOc1ccc(-n2nc3c(SCCN4CCCC4)nnc(C)c3c2C)cc1 | inconclusive: 28.2 µM [inhibitor, single point] | – |
| COc1cccc2c(=O)ccoc12 | inconclusive: 14.1 µM [inhibitor, single point] | – |
| S=C(NCCc1cccc(Cl)c1)NC1CCCCC1 | inconclusive: 28.2 µM [inhibitor, single point] | – |
| O=C(CCl)Nc1cccc2ncccc12 | inconclusive: 10 µM [inhibitor, partial curve] | – |
